This is one part of the list. At the low end of the ranking the order means little.

In the assay the target is MAX:MAX (p21) (UniProt P61244-2). As to the kind of experiment: protein-binding microarray (anti-MAX antibody). Conditions: PBM: 15 mM Tris-HCl pH 7.5, 100 mM KCl, 0.075% NP40, 7.5 mM beta-mercaptoethanol, 375 ng/ul BSA, 8 ng/ul poly(dA-dT):(dA-dT), 550 ng complex, 60 min, room …; high values mean tight binding; double strand, one strand shown; sequences stand for … in CCGGC…TTAATAGCTAAGATTACTATATCGACG
On to TATCACGTGGTA, for which the binding signal (log2 normalized fluorescence) worked out at 3.15. Consider TGACGAGAAGTA, for which the binding signal (log2 normalized fluorescence) was -0.796.

TAACACGCGGTC showed a binding signal (log2 normalized fluorescence) of 3.15.

In turn, TGACACGGCGTC displayed a binding signal (log2 normalized fluorescence) of 1.15. In the case of TGATCCTTTGTA it was -0.81. Take TGAAACCAGGTA: the binding signal (log2 normalized fluorescence) was -0.0586. In the case of TGATCCTAAGTA it was -0.9; in that of TGACGGCGGGTA, -0.16. In the case of TGAATAGTGGTA it was -0.358; in that of TGACCATAAGTA, 0.735.

Turning to TGACCCGTGGCA, the binding signal (log2 normalized fluorescence) turned out to be 2.62. As to TGATCTGGAGTA, the binding signal (log2 normalized fluorescence) was -0.837. To TGACGTACAGTA belongs -0.0346; to TTACACGTGGGA, 3.12; to TGACACATGGCA, 3.15. In the case of TGAGGACGTGTA it was 0.156; in that of TGATTTAAGGTA, -0.887; in that of TGACGACACGTA, 0.437. For the sequence TGACTCGAGGAA, the binding signal (log2 normalized fluorescence) was 0.872. To TGATAGAAAGTA belongs -0.929; to TGAGATGTCGTA, -0.536; to TGATTAAAGGTA, -0.83. In the case of TGAAGCACGGTA it was 1.29; in that of TGACTGATGGTA, 0.373. On to TGACCTACTGTA, for which the binding signal (log2 normalized fluorescence) is -0.113. In turn, TGAACGTGGGTA came in with a binding signal (log2 normalized fluorescence) of 2.48. To TGACAAATGGTG belongs 0.536; to TGAGCGCCCGTA, -0.763; to TGAGTGCCGGTA, -0.394. As for TGATGAGTCGTA, the binding signal (log2 normalized fluorescence) is -0.776. In the case of TGACCAATAGTA it was -0.432. In the case of TGACGGGATGTA it was 0.146; in that of TGACACGCGATT, 2.61; in that of TGACGACCAGTA, -0.263. To TGAGACTGTGTA belongs -0.592; to TGAGGAATGGTA, -0.0673; to TGATTTTTCGTA, -1.32. As to TGACGATAAGTA, the binding signal (log2 normalized fluorescence) was -0.762.

Turning to TGAGCCGGCGTA, the binding signal (log2 normalized fluorescence) was -0.488. Turning to TGACGGATAGTA, the binding signal (log2 normalized fluorescence) is -0.838. To TGAAGTTACGTA belongs -0.683; to TGACCCGAAGTA, -0.27; to TGACAAATAGTA, -0.62.

As to TGAACACAAGTA, the binding signal (log2 normalized fluorescence) is 0.941. To TTACGCGTGGTC belongs 3.19; to TGACTGCATGTA, 1.75.

For GGAGACGATGTT, the binding signal (log2 normalized fluorescence) was -0.341. In the case of CAAGTTACTAAA it was -0.748; in that of TGAATAGCGGTA, -1.04; in that of TAACGGGTGGTA, 1.04. In the case of TGATTTTTAGTA it was -1.59; in that of TGACTCCATGTA, 0.264; in that of TGAAATTGGGTA, -1.15. In the case of TGATCTCGAGTA it was -0.182.

Regarding TGACACTTGGAA, the binding signal (log2 normalized fluorescence) is 0.118. TGAAAGCGTGTA gave a binding signal (log2 normalized fluorescence) of 2.69. For TGACCCACTGTA, the binding signal (log2 normalized fluorescence) turned out to be 0.127. Take TGACTGTACGTA: the binding signal (log2 normalized fluorescence) is -0.112. To TGATCTAGCGTA belongs -0.952; to TGATATGAAGTA, -0.876; to TGATACCAAGTA, -0.868. In the case of TGAGGCAGGGTA it was -0.45; in that of TGATAGTATGTA, -0.223; in that of TGACACCTGCTA, 2.29.

TGACACCTGGTA: the binding signal (log2 normalized fluorescence) is 2.01. To TGACTCGTGGCA belongs 3.22. In the case of TGACCGCCTGTA it was 1.42; in that of TGATCACCAGTA, 0.0178; in that of TGACTACGTGTA, 0.857. In the case of TGATGCGGAGTA it was -0.473. Turning to TGATCCCCTGTA, the binding signal (log2 normalized fluorescence) is -0.408. In the case of TGAACCCGGGTA it was -0.494; in that of TGAGGTCGAGTA, -1.1. Consider TGAGTTTAAGTA, for which the binding signal (log2 normalized fluorescence) is -1.2. In the case of TGAGCCGACGTA it was -0.798; in that of TGATTCCACGTA, 0.0937. Consider TGAACTTATGTA, for which the binding signal (log2 normalized fluorescence) was -0.0804.

For TGAGATTCAGTA, the binding signal (log2 normalized fluorescence) was -1.26. In the case of TGAGGTATGGTA it was 0.477; in that of TGATGCGTTGTA, 0.14.

TGATGTGTTGTA had a binding signal (log2 normalized fluorescence) of 0.284. In the case of TGACATTTCGTA it was -0.398.

For the sequence TGACACTACGTA, the binding signal (log2 normalized fluorescence) is -0.11. For the sequence TGAACCATAGTA, the binding signal (log2 normalized fluorescence) was -0.481. To TGAAGTGGTGTA belongs -0.188; to TGAGCGGTCGTA, -0.858. In the case of TGAGAGCCCGTA, the binding signal (log2 normalized fluorescence) was -0.738. Consider TGATTTGCGGTA, for which the binding signal (log2 normalized fluorescence) was -0.786.

With CGACACGTGGAA, the binding signal (log2 normalized fluorescence) was determined as 3.32. Sequence TGAGACGTGCTA came in with a binding signal (log2 normalized fluorescence) of 1.27. For TGAAAACAAGTA, the binding signal (log2 normalized fluorescence) is -0.566.

As to TGAATTAATGTA, the binding signal (log2 normalized fluorescence) is -0.316. Turning to TGAGAATGCGTA, the binding signal (log2 normalized fluorescence) amounted to 0.19. In the case of TCCCACGTGGTA it was 3.4. To TGAGCAAGAGTA belongs -0.65; to TGATACAGCGTA, -0.85; to TGACACATAGTA, 0.475. To TGACACACCGTA belongs 1.15. For the sequence TGAGTTGCCGTA, the binding signal (log2 normalized fluorescence) is -0.919.

In turn, TGAAGAGGGGTA displayed a binding signal (log2 normalized fluorescence) of 0.0222. Sequence TGAATGTAAGTA had a binding signal (log2 normalized fluorescence) of 0.15.

Regarding TGATTGACCGTA, the binding signal (log2 normalized fluorescence) is -0.705.

Sequence TTTCACGAGGTA yielded a binding signal (log2 normalized fluorescence) of 2.88. In the case of TGATCGTATGTA it was -0.0281; in that of TGAGTCTACGTA, -1.08. Take TGACTGCTGGTA: the binding signal (log2 normalized fluorescence) was 0.0201. In the case of GCTCACGTGGTA it was 3.34; in that of TGAGAAGTGGTA, -0.662; in that of TGAGTCTCAGTA, -0.907. Regarding TGAAGTTTTGTA, the binding signal (log2 normalized fluorescence) was -1.16. In the case of TGATTTACCGTA it was -0.871; in that of TGATAATCCGTA, -1.37.

TGATACCGTGTA had a binding signal (log2 normalized fluorescence) of 0.507. Consider TGAGGAGGCGTA, for which the binding signal (log2 normalized fluorescence) is -0.734. Sequence TGAATGGCAGTA came in with a binding signal (log2 normalized fluorescence) of 0.363. Consider TGAAGCTTAGTA, for which the binding signal (log2 normalized fluorescence) is -0.954. On to TGACACTGGGTA, for which the binding signal (log2 normalized fluorescence) is -0.0981. In the case of TGAGACTGCGTA it was -0.509.

On to TGAGATCCGGTA, for which the binding signal (log2 normalized fluorescence) is -1.12. On to TGACTAGTGGTA, for which the binding signal (log2 normalized fluorescence) was -0.113.

On to TGACACGTTGTT, for which the binding signal (log2 normalized fluorescence) amounted to 3.22. As to TGATAATCTGTA, the binding signal (log2 normalized fluorescence) was -1.

With TGATGAACGGTA, the binding signal (log2 normalized fluorescence) is -0.491.

In the case of TGACATGAGTTA, the binding signal (log2 normalized fluorescence) was found to be 2.36.

For the sequence TGACAATCTGTA, the binding signal (log2 normalized fluorescence) was -0.193. To TGATGAGTTGTA belongs -0.57.

With TGACGCTTGGTA, the binding signal (log2 normalized fluorescence) is -0.49. For the sequence TGAGGTGAGGTA, the binding signal (log2 normalized fluorescence) is -0.115. In the case of CGAGACGTAGTT it was -0.866; in that of TGAACGGGGGTA, 1.39; in that of TGATAGGTAGTA, -0.89. In turn, TGACACGTTCGA showed a binding signal (log2 normalized fluorescence) of 2.6.

Sequence TGACACGCGTTA showed a binding signal (log2 normalized fluorescence) of 3.04. In the case of TGACACGTAGTT it was 1.59; in that of GGAAACGGGGTA, 0.942; in that of TGATACCGAGTA, -0.655.

As to TGACAGGGCGTA, the binding signal (log2 normalized fluorescence) is -0.314. Consider TGACCAGTGGTA, for which the binding signal (log2 normalized fluorescence) was determined as 0.0575. To TGACGCTCGGTA belongs -0.419; to TGAACACCTGTA, 1.86. As for TGAGGGTGTGTA, the binding signal (log2 normalized fluorescence) was 0.424.

In turn, TCTTACGTGGTA came in with a binding signal (log2 normalized fluorescence) of 0.802. In the case of TGACTGACTGTA it was -0.0276; in that of CTACACGTGGTG, 3.19.

In the case of TGACGAGCCGTA, the binding signal (log2 normalized fluorescence) is -0.379. In the case of TGAATCTCGGTA, the binding signal (log2 normalized fluorescence) is -0.828. To TGAAGGGCTGTA belongs -0.27; to TGACCGCGGGTA, 0.294; to TCACACATCGTA, 1.93. In the case of TGAGGCACAGTA it was -0.443. To TGACACGGACTA belongs 0.955; to TGACAGGGTGTA, 0.438.

On to TGACCGAGAGTA, for which the binding signal (log2 normalized fluorescence) is -0.626. To TGAGACCTTGTA belongs -0.67. In the case of TGAACTTAGGTA it was -0.672. In the case of TGAAGGATTGTA, the binding signal (log2 normalized fluorescence) was -0.589. In the case of TGAGCGCTAGTA it was -0.526; in that of TGAGGTCAGGTA, -0.448; in that of TGAACAAACGTA, -0.445.

Regarding TGAACGCCAGTA, the binding signal (log2 normalized fluorescence) was -0.111. In turn, TGGCACGTGGGA returned a binding signal (log2 normalized fluorescence) of 3.64. For TGACATGTTGTA, the binding signal (log2 normalized fluorescence) is 2.16. As for TGACACGGGGAA, the binding signal (log2 normalized fluorescence) amounted to 2.43. In the case of TGGCACCCGGTA it was 0.277.

Take TGATAAGCGGTA: the binding signal (log2 normalized fluorescence) is -0.893.

TGACGATCGGTA: the binding signal (log2 normalized fluorescence) is -0.405. As for TGATACTCTGTA, the binding signal (log2 normalized fluorescence) is -1.13. In the case of TGACACCTTGTA it was 0.67; in that of TGAACTATCGTA, -0.677.

On to TGACTCCTGGTA, for which the binding signal (log2 normalized fluorescence) was determined as 0.139. To TGAGCATCGGTA belongs -0.509; to TGATGGCGCGTA, 0.661; to TGATAAGTGGTA, -0.651. As for TGAGTGCTTGTA, the binding signal (log2 normalized fluorescence) was 0.135.

In turn, TGAAACGGGGTA yielded a binding signal (log2 normalized fluorescence) of 0.332.

The values above are taken from PMC5515408.
